Hit rate of the full screen: of about 48,000 compounds, about 550 (1.1%) were called active. Not shown: some 4% with an inconclusive outcome. Cut-off read from the data, not from the text of the source: active = potency below about 15 µM; inconclusive = mostly about 16 µM to 33 µM; inactive = weaker than that. This is one part of the list. Where only a bound is given, the exact number is not on record here.

From PubChem BioAssay AID360 (National Center for Advancing Translational Sciences (NCATS), 2006) come the findings set out here.
Potency is the fitted concentration of half-maximal effect.

UniProt P04062, sequence (P04062 whole entry, looked up): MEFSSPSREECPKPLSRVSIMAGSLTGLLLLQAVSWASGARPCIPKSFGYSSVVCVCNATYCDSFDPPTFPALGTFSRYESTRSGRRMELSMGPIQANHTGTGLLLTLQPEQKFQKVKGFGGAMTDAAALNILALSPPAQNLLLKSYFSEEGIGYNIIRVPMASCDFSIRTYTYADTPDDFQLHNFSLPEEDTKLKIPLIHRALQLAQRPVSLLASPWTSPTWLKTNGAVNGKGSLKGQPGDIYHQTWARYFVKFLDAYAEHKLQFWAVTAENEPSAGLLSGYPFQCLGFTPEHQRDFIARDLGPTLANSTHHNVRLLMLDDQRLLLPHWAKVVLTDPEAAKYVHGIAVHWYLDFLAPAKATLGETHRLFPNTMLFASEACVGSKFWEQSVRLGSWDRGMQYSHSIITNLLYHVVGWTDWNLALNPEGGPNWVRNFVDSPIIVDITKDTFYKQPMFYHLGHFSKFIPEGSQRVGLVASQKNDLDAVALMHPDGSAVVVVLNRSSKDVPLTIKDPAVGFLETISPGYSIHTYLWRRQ

The experiment addresses Lysosomal acid glucosylceramidase (Homo sapiens) (UniProt P04062). Put plainly: Glucocerebrosidase.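 Note: the screen sought inhibitors.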 Particulars: purified enzyme, resorufin glucoside fluorescence (screen aimed at inhibitors), 20 min. The method in brief:
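Normal human glucocerebrosidase (0.2 nM final) was assayed with resorufin β-D-glucopyranoside (30 uM final) in 50mM citric acid/KH2PO4, 10mM sodium taurocholate, 0.01% tween-20, pH 5.9. Compounds were titrated; fluorescence (Ex 548, Em 600) read after 20 min at RT.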
Regarding `Cc1ccccc1CSc1nncn1N`, the Potency was inactive: > 76.9 µM.
`Cc1ccccc1-n1c(N)cc(=O)[nH]c1=S`: the Potency was inactive: > 76.9 µM.
As to `CCN(CC)CCCNC(=O)C1c2ccccc2C(=O)N1Cc1ccc(C)cc1` (stereo not drawn), the Potency was inactive: > 76.9 µM.
As to `CC(Sc1nc2ccccc2c(=O)n1Cc1ccco1)C(=O)c1ccccc1` (stereo not drawn), the Potency was inactive: > 76.9 µM.
In the case of `COC(=O)[C@@H](NC(=O)NC1CCN(Cc2ccccc2)CC1)C(C)C`, the Potency was inactive: > 76.9 µM.
On to `CCOc1cccc(-c2nnc(SCC(=O)Nc3ccc(OC)c(OC)c3)n2N)c1`, for which the Potency was inactive: > 76.9 µM.
Turning to `O=C(CN1C(=O)C2CCCCN2C(=O)c2ccccc21)N1CCCc2ccccc21` (stereo not drawn), the Potency was inactive: > 76.9 µM.
On to `COc1ccccc1-c1nnc(SCc2ccccn2)n1C`, for which the Potency is inactive: > 76.9 µM.
The figure for `C=C(C)Cn1c(CCCNC(=O)CCC)nc2ccccc21` is inactive: > 76.9 µM.
Under `O=C(c1ccc(Br)o1)N(c1ccc(Br)cc1)C1C=CS(=O)(=O)C1` (stereo not drawn) stands “inactive”; under `Cc1ccnc(-n2c(CCN3C(=O)c4ccccc4C3=O)nc3ccccc3c2=O)c1`, inactive: > 76.9 µM.
As to `CCOC(=O)c1ccccc1NC(=O)CCNC(=O)Cn1cnc2ccccc2c1=O`, the Potency is inactive: > 76.9 µM.
In the case of `COc1ccc(-c2nsc3c(N4CCN(C(=O)c5ccco5)CC4)ncnc23)cc1`, the Potency is inactive: > 76.9 µM.
The figure for `Cc1ccc(-c2noc(CN(C(=O)C34CC5CC(CC(C5)C3)C4)C(C)C)n2)cc1` is inactive: > 76.9 µM; for `O=C(CN1CCCCC1)Nc1cc(Cl)ccc1Cl` it is inactive: > 76.9 µM; for `CCC1CCCCN1C(=O)CSc1nnc(CNC(=O)c2ccco2)o1` (stereo not drawn) it is inactive: > 76.9 µM.
For the compound `COc1ccccc1CNC(=O)C1CC(=O)N(C2CCCC2)C1` (stereo not drawn), the Potency is inactive: > 76.9 µM.
On to `COc1cccc(C(CC(=O)NCCN2CCOCC2)NS(=O)(=O)c2ccc(C)cc2)c1OC` (stereo not drawn), for which the Potency was inactive: > 76.9 µM.
In the case of `CCc1ccc(S(=O)(=O)NCc2cn3ccccc3n2)s1`, the Potency entry is “inactive”.
As for `O=C1OCCC1Sc1nc2ccccc2n1Cc1ccccc1` (stereo not drawn), the Potency is inactive: > 76.9 µM.
`CCN1CCN(Cc2nc3c(c(=O)n(C)c(=O)n3C)n2CCCc2ccccc2)CC1`: the Potency was inactive: > 76.9 µM.
For `CCS(=O)(=O)c1ccc(O)c(NC(=O)Nc2ccccc2)c1`, the Potency was inactive: > 76.9 µM.
Regarding `COc1ccc(N2CCC(CNC(=O)Nc3ccc(OC)cc3OC)C2)cc1` (stereo not drawn), the Potency was inactive: > 76.9 µM.
`CCOC(=O)Nc1ccc2c(c1)N(C(=O)CN1CCN3CCCC3C1)c1ccccc1CC2` (stereo not drawn): the Potency was inactive: > 76.9 µM.
Regarding `Cc1cccc(NC(=O)CS(=O)(=O)c2c[nH]c3ccccc23)c1C`, the Potency was inactive: > 76.9 µM.
Take `CCC1CCCCN1CCCNC(=O)Cn1nc(-c2ccc(C)cc2)ccc1=O` (stereo not drawn): the Potency was inactive: > 76.9 µM.
In the case of `COC(=O)c1ccc(Cn2c(CN3CCOCC3)nc3ccccc3c2=O)o1`, the Potency is inactive: > 76.9 µM.
As for `Cc1noc(C)c1COC(=O)C1COc2ccccc2O1` (stereo not drawn), the Potency was inactive: > 76.9 µM.
Regarding `COc1ccc(Br)cc1CNC(=O)CCc1nc(-c2ccc(C)cc2)no1`, the Potency was inactive: > 76.9 µM.
Consider `Cc1ccc(S(=O)(=O)N2CCCN(S(=O)(=O)c3ccc(C(F)(F)F)cc3)CC2)cc1`, for which the Potency is inactive: > 76.9 µM.
The figure for `O=c1nc(N2CCOCC2)ccn1-c1nc(-c2ccccc2)oc1-c1ccccc1` is inactive: > 76.9 µM; for `O=c1[nH]c2c(cc1CNCCN1CCOCC1)c(-c1cccc(F)c1)nn2-c1ccccc1` it is inactive: > 76.9 µM; for `CCN(CC)S(=O)(=O)c1cccc(C(=O)OCc2cc(=O)n3nc(C)sc3n2)c1` it is inactive: > 76.9 µM.
For the compound `Cc1cc(Br)c(S(=O)(=O)n2nnc3ccccc32)cc1C`, the Potency was inactive: > 76.9 µM.
Turning to `c1csc(-c2csc3ncnc(NCCCN4CCOCC4)c23)c1`, the Potency entry was “inactive”.
Under `Cn1c(=O)c2cc(S(=O)(=O)N3CCOCC3)ccc2n(C)c1=O` stands inactive: > 76.9 µM; under `CC(CC(C)C(=O)N1CCOCCN(C(=O)C(C)CC(C)C(=O)O)CCOCC1)C(=O)O` (stereo not drawn), inactive: > 76.9 µM; under `O=C(NC1CCCC1)c1nc2c(nnn2Cc2cccc(Cl)c2)c(=O)[nH]1`, inactive: > 76.9 µM.
With `O=C(Nc1ccccc1)NC1(C(=O)NCc2ccc3c(c2)OCO3)CCCCC1`, the Potency is inactive: > 76.9 µM.
For the compound `NCCN1CCN(CCN)CC1`, the Potency was inactive: > 76.9 µM.
Regarding `CCN(CC)C(=O)c1cn(C)c(=O)c2cc(OC)c(OC)cc12`, the Potency was inactive: > 76.9 µM.
Consider `NC(=O)CCn1c(=O)oc2ccccc21`, for which the Potency is inactive: > 76.9 µM.
Take `CNC(=O)n1ccc(C(=O)N2CCCCC2)n1`: the Potency was inactive: > 76.9 µM.
On to `CCN1C=C(Cc2cccs2)C2=C(C1)C(c1cccs1)C(C#N)=C(N)O2` (stereo not drawn), for which the Potency result was “inactive”.
As for `COC(=O)c1sccc1NC(=O)c1cc(C)on1`, the Potency was inactive: > 76.9 µM.
Under `CCCC(=O)Nc1ccc(N2CCN(C(=O)c3cccs3)CC2)cc1` stands inactive: > 76.9 µM; under `COc1ccc(OC)c(C2C(C(=O)O)c3ccccc3C(=O)N2C)c1` (stereo not drawn), inactive: > 76.9 µM; under `CCCc1cc(=O)[nH]c(SCC(=O)N(CC)Cc2ccccc2)n1`, inactive: > 76.9 µM.
Turning to `Cc1ccccc1C(=O)NCc1ccncc1`, the Potency is inactive: > 76.9 µM.
On to `CC(=O)N(C)C1(c2nnnn2CCOC(=O)Nc2cccc3ccccc23)CCCC1`, for which the Potency was inactive: > 76.9 µM.
With `CC(C)CNC(=O)c1cc(-c2ccc(Cl)c(Cl)c2)on1`, the Potency was inactive: > 76.9 µM.
The figure for `Cc1ccc(CNC(=O)C2CCCCC2C(=O)O)cc1` (stereo not drawn) is inactive: > 76.9 µM; for `COc1ccc(C(C)=O)cc1COC(=O)c1ccc2c(c1)OCO2` it is inactive: > 76.9 µM; for `CCOC(=O)C1=C(C)NC(=O)NC1c1ccc(OCC(=O)OC)c(OC)c1` (stereo not drawn) it is inactive: > 76.9 µM.
As for `COC(=O)c1ccc(C2CC(=O)NC3=C2C(=O)CCC3)cc1` (stereo not drawn), the Potency was inactive: > 76.9 µM.
In the case of `COC(=O)c1c(NC(=O)c2ccco2)sc(C(=O)N2CCCC2)c1C`, the Potency was inactive: > 76.9 µM.
On to `Cn1c(=NC(=O)c2cnccn2)sc2ccccc21`, for which the Potency is inactive: > 76.9 µM.
For `O=C1CN(C(=O)COC(=O)Cc2ccsc2)c2ccccc2N1`, the Potency was inactive: > 76.9 µM.
